From patent US9457081B2, “Combination therapy using c-Met inhibitor and beta-catenin inhibitor” (Samsung Electronics Co., Ltd., priority 2013, dated 2016)

Tests used:
Settings in all cases: rank among the four antibodies huAbF46-H4-A1, -A2, -A3, -A5
c-Met [1] = target: T1, c-Met (Homo sapiens, UniProt P08581); experiment: Affinity for c-Met of the affinity-matured IgG antibodies; assay type: binding
Akt phosphorylation = Akt phosphorylation by the anti-c-Met antibodies; assay type: cell-based
c-Met [2] = target: T1, c-Met; experiment: c-Met degradation degree by the anti-c-Met antibodies; assay type: cell-based

T1 sequence (P08581 25-1390): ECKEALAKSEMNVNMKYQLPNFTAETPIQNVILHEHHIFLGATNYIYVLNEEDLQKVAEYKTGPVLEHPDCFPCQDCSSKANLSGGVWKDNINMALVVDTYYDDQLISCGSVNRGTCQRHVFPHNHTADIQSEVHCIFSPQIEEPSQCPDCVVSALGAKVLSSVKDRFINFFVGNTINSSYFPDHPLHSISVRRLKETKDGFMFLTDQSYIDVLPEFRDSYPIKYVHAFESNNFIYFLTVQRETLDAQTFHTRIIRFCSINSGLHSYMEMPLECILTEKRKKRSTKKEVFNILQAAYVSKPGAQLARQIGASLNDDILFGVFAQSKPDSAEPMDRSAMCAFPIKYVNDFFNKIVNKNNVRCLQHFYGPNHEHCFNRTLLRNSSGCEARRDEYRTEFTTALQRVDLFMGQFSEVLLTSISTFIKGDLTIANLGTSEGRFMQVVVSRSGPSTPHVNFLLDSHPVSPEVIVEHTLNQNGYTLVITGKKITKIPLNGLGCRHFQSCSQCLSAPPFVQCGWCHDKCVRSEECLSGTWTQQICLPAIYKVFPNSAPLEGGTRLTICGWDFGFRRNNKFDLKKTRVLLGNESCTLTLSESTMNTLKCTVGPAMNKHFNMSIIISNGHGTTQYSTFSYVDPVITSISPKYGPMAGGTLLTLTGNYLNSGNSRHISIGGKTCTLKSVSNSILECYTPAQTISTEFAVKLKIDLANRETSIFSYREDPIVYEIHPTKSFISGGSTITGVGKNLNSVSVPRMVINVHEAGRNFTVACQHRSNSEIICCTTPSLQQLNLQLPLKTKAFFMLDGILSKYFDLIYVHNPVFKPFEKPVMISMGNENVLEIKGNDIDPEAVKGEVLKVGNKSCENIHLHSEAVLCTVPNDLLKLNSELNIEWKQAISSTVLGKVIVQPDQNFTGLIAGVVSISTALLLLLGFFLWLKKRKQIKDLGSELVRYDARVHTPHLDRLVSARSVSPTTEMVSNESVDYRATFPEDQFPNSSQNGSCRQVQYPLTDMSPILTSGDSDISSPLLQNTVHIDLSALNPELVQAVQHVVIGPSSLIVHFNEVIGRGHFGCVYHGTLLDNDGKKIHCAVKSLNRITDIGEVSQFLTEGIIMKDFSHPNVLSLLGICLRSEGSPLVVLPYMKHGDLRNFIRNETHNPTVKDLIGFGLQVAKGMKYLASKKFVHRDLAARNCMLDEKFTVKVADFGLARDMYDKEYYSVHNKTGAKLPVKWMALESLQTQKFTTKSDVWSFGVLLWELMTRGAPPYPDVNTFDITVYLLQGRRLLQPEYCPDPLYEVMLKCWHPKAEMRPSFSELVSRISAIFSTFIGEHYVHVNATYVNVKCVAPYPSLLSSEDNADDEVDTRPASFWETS

affinity for c-Met (c-Met [1]): highest | c-Met degradation degree (c-Met [2]): lowest
B1: huAbF46-H4-A1: affinity-matured humanized anti-c-Met antibody, L3-1 origin (antibody)
heavy: EVQLVESGGGLVQPGGSLRLSCAASGFTFTDYYMSWVRQAPGKGLEWLGFIRNKANGYTTEYSASVKGRFTISRDNSKNTLYLQMNSLRAEDTAVYYCARDNWFAYWGQGTLVTVSSASTKGPSVFPLAPSSKSTSGGTAALGCLVKDYFPEPVTVSWNSGALTSGVHTFPAVLQSSGLYSLSSVVTVPSSSLGTQTYICNVNHKPSNTKVDKKVEPKSCDCH[human IgG1 Fc not given here]
light: DIQMTQSPSSLSASVGDRVTITCKSSQSLLASGNQNNYLAWHQQKPGKAPKMLIIWASTRVSGVPSRFSGSGSGTDFTLTISSLQPEDFATYYCQQSYSRPYTFGQGTKVEIKRTVAAPSVFIFPPSDEQLKSGTASVVCLLNNFYPREAKVQWKVDNALQSGNSQESVTEQDSKDSTYSLSSTLTLSKADYEKHKVYACEVTHQGLSSPVTKSFNRGEC
Akt phosphorylation (Akt phosphorylation): lowest
